What is called % Inhibition is the drop in the measured response relative to a control, in per cent.

We go through 43 molecules from ChEMBL document CHEMBL5308541, “MAIP: An Open-Source Tool to Enrich High-Throughput Screening Output and Identify Novel, Druglike Molecules with Antimalarial Activity” (ACS Med Chem Lett, 2023).

Screen size: about 150,000 compounds; about 540 (0.36%) showed an effect of 50% or more. This is one part of the list.

In this assay the test system is Plasmodium falciparum. Put plainly: Primary screen in NF54 nanoGlo assay, in single point, at 2uM, 72h; a lower Z score goes with more inhibition. In kind it is functional, Erythrocyte. The following applies: timepoint 72 hour.
For `c1ccc2c(CCNc3ccc(-c4nc(C5CC5)no4)cn3)c[nH]c2c1`, the “% Inhibition” value is -15% and the Z score was determined as 2.22.

As for `Cc1cc(NCc2ccc(CN3CCOCC3)cc2)nc2ccccc12`, the “% Inhibition” value is 0% and the Z score is on record as 0.06.

With `O=C(CN1CCOC1=O)N1CCc2[nH]cnc2C1`, the “% Inhibition” value is recorded as -1% and the Z score was 0.14.

With `Oc1ccc(-c2ccnc3ccccc23)cc1OC(F)(F)F`, the “% Inhibition” value was determined as 2% and the Z score is given as -0.38.

Regarding `CN1CCC[C@H](N2CCN(C(=O)c3ccnc4ccncc34)CC2)C1`, the “% Inhibition” value was -3% and the Z score was 0.4.

As for `Cc1ccc2cc(CN3CCNCC3)c(N3CCN(CCO)CC3)nc2c1`, the “% Inhibition” value is recorded as 8% and the Z score is given as -1.77.

Consider `CC(C)C[C@H]1CN(C)CCN1C(=O)c1ncnc2[nH]ccc12`, for which the “% Inhibition” value amounted to 0% and the Z score is reported as -0.06.

In the case of `COc1ccnc(NCc2ccc(N3CC(C)OC(C)C3)nc2)n1` (stereo unspecified), the “% Inhibition” value was -7% and the Z score turned out to be 1.27.

In the case of `O[C@H]1CCCN(c2ccnc(NCCCn3ncc4ccccc43)n2)C1`, the “% Inhibition” value is recorded as -7% and the Z score came to 1.14.

In the case of `COc1cccc2c1OC[C@@H](Nc1nccc(N3CCC(O)CC3)n1)C2`, the “% Inhibition” value is listed as -22% and the Z score was 3.84.

For `CCn1ccc2cc(NC(=O)c3cc(=O)c4ccccc4[nH]3)ccc21`, the “% Inhibition” value turned out to be 4% and the Z score is listed as -0.93.

`c1ccc2c(Nc3ccc(Nc4cccc5ccccc45)cc3)cccc2c1`: the “% Inhibition” value was -12% and the Z score was found to be 1.99.

In the case of `c1cc2cc(-c3cn([C@H]4CCCNC4)nn3)ccc2[nH]1`, the “% Inhibition” value amounted to 8% and the Z score is recorded as -1.16.

For the molecule `COc1ccccc1OCCN1CCCN(S(=O)(=O)c2cccc3cnccc23)CC1`, the “% Inhibition” value is -10% and the Z score is recorded as 1.52.

Regarding `Cn1cc(-c2ncc(C(=O)NC3CCN(C[C@H]4CCOC4)CC3)s2)cn1`, the “% Inhibition” value is -11% and the Z score is on record as 1.64.

Turning to `Cc1cc2cc[nH]c2cc1NC(=O)N1CCN(c2cnccn2)CC1`, the “% Inhibition” value is given as -8% and the Z score worked out at 1.55.

On to `CN(CCCCN1CCOCC1)Cc1cccc2nonc12`, for which the “% Inhibition” value was -4% and the Z score is given as 0.77.

`Cc1nc(NC[C@@H](c2cccnc2)N2CCCCC2)c2ccsc2n1`: the “% Inhibition” value is 11% and the Z score is -1.93.

Take `O=C(C1CCCC1)N1CC[C@H](Nc2nnc(-c3ccccn3)s2)C1`: the “% Inhibition” value is reported as -16% and the Z score was 3.13.

In the case of `CN(CCC1CCN(c2ccncc2)CC1)C(=O)c1cc2sccc2[nH]1`, the “% Inhibition” value turned out to be 4% and the Z score is given as -0.66.

For `CN1CCN(C(=O)CN2CCCC[C@H](N3CCN(C)CC3)C2)CC1`, the “% Inhibition” value was determined as 1% and the Z score is recorded as -0.22.

As for `CCNc1nc(NCC)nc(Nc2ccc(Cl)c(Cl)c2)n1`, the “% Inhibition” value is given as 1% and the Z score was -0.14.

Turning to `COc1cc(C(=O)O)cc(C(=O)N(C)Cc2cc(C)no2)c1`, the “% Inhibition” value worked out at 1% and the Z score is -0.16.

Consider `Cc1cc2cc(NC(=O)C3(N)CCCC3)ccc2o1`, for which the “% Inhibition” value was -17% and the Z score is given as 2.94.

As for `CN(Cc1cc(O)c2ccccc2n1)CC1CCN(CCc2ccc(F)cc2)CC1`, the “% Inhibition” value is recorded as -11% and the Z score stood at 1.92.

In the case of `CC(C)C1CN(C(=O)c2cccc(CN)c2)CC(c2ccccc2)O1` (stereo unspecified), the “% Inhibition” value is -6% and the Z score was 0.95.

As to `O=C1CCCC1C1CCCN1C(=O)C(O)Cc1cccc(C(F)(F)F)c1` (stereo unspecified), the “% Inhibition” value is listed as -6% and the Z score worked out at 0.96.

For `Cc1nc(NC(CO)CO)ccc1Br`, the “% Inhibition” value was -11% and the Z score was 2.27.

In the case of `CCNc1ncc(C(=O)N[C@@H]2CCCC[C@H]2OCc2ccccc2)cn1`, the “% Inhibition” value is -3% and the Z score turned out to be 0.57.

As for `Cc1[nH]nc2ncc(NC(=O)[C@H]3CCCN(CC(F)(F)F)C3)cc12`, the “% Inhibition” value came to 6% and the Z score is given as -1.21.

As for `CCc1nc(NC[C@@H](c2ccncc2)N2CCOCC2)c2cnn(C)c2n1`, the “% Inhibition” value is reported as -5% and the Z score was found to be 1.08.

As for `Cc1cc(-c2c[nH]c3ncccc23)nc2cc(F)ccc12`, the “% Inhibition” value came to 3% and the Z score is given as -0.53.

`Cc1ccccc1CN1CCC(CNC(=O)c2n[nH]c3c2COc2ccccc2-3)CC1`: the “% Inhibition” value is -7% and the Z score is recorded as 1.27.

In the case of `CC(C)N1CCC(N2CC[C@H](C3CCN(c4ncccn4)CC3)C2)CC1`, the “% Inhibition” value is recorded as -6% and the Z score was 1.

With `O=C(CN1CCCCCC1)N1CCC2(CC1)CCC(O)(CN1CCc3ccccc31)CC2`, the “% Inhibition” value was -17% and the Z score came out at 3.07.

`c1cc(NC[C@H]2CCCOC2)nc(-n2cnc3ccccc32)c1`: the “% Inhibition” value is reported as -12% and the Z score is recorded as 1.79.

For `CNc1cc(N2CCC[C@@H]2CNc2nn3cc(C)nc3s2)ncn1`, the “% Inhibition” value turned out to be 3% and the Z score is -0.5.

In the case of `O=S(=O)(Nc1ccc(N2CCC(NCCCN3CCc4ccccc43)CC2)cc1)c1ccccc1`, the “% Inhibition” value turned out to be 8% and the Z score is listed as -1.44.

For the molecule `O=C1CN(C(=O)c2ccnc3ccccc23)CCN1Cc1ccccc1F`, the “% Inhibition” value worked out at 68% and the Z score is given as -13.41.

Regarding `COc1ccc2c(C(=O)N[C@@H](C)c3csc(C)n3)cc(C)nc2c1`, the “% Inhibition” value was -10% and the Z score was determined as 1.79.

In the case of `C[C@@H](CCCC(C)(C)O)NCc1cc(O)c2cc(F)ccc2n1`, the “% Inhibition” value was 0% and the Z score was found to be 0.05.

With `CCC1CCCCN1CCNC(=O)C(C)CN(C)C(=O)OC(C)(C)C` (stereo unspecified), the “% Inhibition” value was -2% and the Z score was 0.47.

In the case of `CC(C)(C)c1nccc(N2CCC(NC3CCOCC3)CC2)n1`, the “% Inhibition” value was -1% and the Z score is reported as 0.17.
